± gives the standard deviation of the averaged measurements. This is one part of the list.
These sequences were tested on PfAP2-G AP2 domain (GST-tagged) (assay: gcPBM binding intensity (ln(normalized median fluorescence intensity)); higher = stronger DNA binding).
In short: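 Alexa488 anti-GST antibody, scanned at 488 nm, detected GST-tagged P. falciparum DNA-binding domains that had been expressed in E. coli and incubated for 1 h on an Agilent 4 × 180k array. The array carried primer-extended double-stranded 36-bp intergenic genomic probes and negative controls. Binding intensity is the highest Masliner-normalised natural-log median intensity across replicate spots of either orientation of each probe.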

Sequence	gcPBM binding intensity (ln)
GCACACACAAAAAAAGCATGCATACTAGCTATTTTT [TGCATGCA_site18]	9.64 ± 0.18
CATTTTTTATAATAATGTACATGTATTAAAAAAAAA [XGTACX_site6390]	11.3 ± 0.88
TTTATAAGAATTACTAGTACATATAAGGAATTATAT [XGTACX_site3953]	11 ± 0.66
TTATAAATTTAAAGTAGTACTATACTACTATTTTAT [XGTACX_site3038]	11.3 ± 0.76
TATGGAATAATACGCGTACACACATATATATATTAA [CACACA_site132]	11.6 ± 0.93
ATCCACAAAATAGGATGTACATATAAAATAAATAAA [XGTACX_site5362]	11.2 ± 0.74
TTGTTTCAAGAAAAAATCGAAAAACATAGAAAAAAA [XGTACX_negctrl_site615]	10.1 ± 0.16
ATATAATATTACAAATGTACTTTAAAAAATTAGGAG [XGTACX_site3897]	11.2 ± 0.69
TTGCAATAATGTTGCACACTAAATAGTCATATATAA [CACACA_site263]	10.1 ± 0.28
ACATATAAAATATATACACACATATAAATACATTAA [CACACA_site3867]	10 ± 0.27
TATATATCAAAAATATGTACACAGAAATATATATTA [XGTACX_site6997]	11.4 ± 0.73
AAGACTAATCTAGGTAGTACTTATATATCTTTATTT [XGTACX_site4572]	11.4 ± 1.1
ATATAAGGAAGGGATGCACACAAAAGGGTACATAAG [CACACA_site9328]	11.5 ± 0.83
TTTTAGTGAAATGAGTGTACATTATATATTTTTTTT [XGTACX_site4892]	11 ± 0.32
ATTCTATATATATAAACACACAAATATTTTTATATA [CACACA_site1677]	9.875 ± 0.064
ATATTTTTGTTCAGGAGTACAGTTCAAGATGAAAAT [XGTACX_site4178]	11.6 ± 0.99
TTTTTTATATATGTGTGTGTGTGTGTGTCAAGTTTA [GTGCAC_negctrl_site460]	10.3 ± 0.29
ATAACATAATAGCAACAATTTATTTCCTCTATAACA [CACACA_negctrl_site243]	9.805 ± 0.007
TTTGGGATATTTACAGTGCAAAGATATTTTTATAAT	9.97 ± 0.19
GTGCTAGTATTTAATACACACAATTGAAGTTCCTGA [CACACA_site1452]	9.925 ± 0.049
AATAGATTTTTATGCGTGCACACATTTAACAAAAAA	10.6 ± 0.51
CTTTATCTTTTTCATTGTACTTTATTTTAAAATTAA [XGTACX_site4858]	11.5 ± 1

Sequence	gcPBM binding intensity (ln)
TGCAGTCTGGAGAAAAGTACACAGTATCTGGTAGCT [XGTACX_site2013]	11.4 ± 0.94
AATATCATAAAATAAAGTACAAATATATATTGAAAA [XGTACX_site8813]	11.1 ± 0.66
AAAAATATAAAGAAATGTACTTATAAAAATCCCTAC [XGTACX_site3824]	11 ± 0.62
TACACCAGTTGTGGGAGTACACAAAAAAAGGGAAAA [XGTACX_site6047]	11.7 ± 1
TTCTGTTCAAAATATGAACACACACCGATATATATA [CACACA_site8637]	10.1 ± 0.23
TAATTTAATTTTCCAAGAAAAAAAAAAGAAAAAAGA [CACACA_negctrl_site1703]	9.69 ± 0.042
TTCTGGTGTAAATGCACACAGAAGAAGAAAAAAAAA [CACACA_site3685]	10.1 ± 0.3
TAACATCCTAATGTCACACATGTTATAGGTTTAAAT [CACACA_site5649]	9.975 ± 0.049
AAAAAAAATAAACACACACACATACCCATAAATATA [CACACA_site5980]	10.12 ± 0.049
TTTTAAAATATATTTGTATATATATATATATATATA [XGTACX_negctrl_site536]	10.4 ± 1
ATAATATAATAATACACACTCATTATATATATAAAG [CACACA_site3956]	9.94 ± 0.028
TCCTTTCTTTTTTAAACATGCATATGTAATATAAAT [TGCATGCA_site979]	10 ± 0.26
CCTTCATCATATTTAACACACAGAGAAAAAGCGGAT [CACACA_site274]	10.1 ± 0.17
AAAAAAAAAAAAAAAAAAACCACAAACAAATATGAA [TGCATGCA_negctrl_site34]	10.8 ± 0.44
TTTACATACAAATTAACACACATATAGAAAAGAGAA [CACACA_site1889]	10.06 ± 0.014
ATATTATTTTGTCAGGGTACATTCCATAAGTTTTTT [XGTACX_site6855]	11 ± 0.5
TTTGAAATATTTATTTGTACATATACACACTTAAAT [XGTACX_site8321]	11 ± 0.57
TTTCTTTTTTTTTTTATTTACCTGAATTATGTATTA [TGCATGCA_negctrl_site345]	9.615 ± 0.007
TATTTATGTAGATACACACCCATGTTATATGGAGGT [CACACA_site3461]	10.14 ± 0.092
GCTTGTTCAAAAATGAGTACATACAAATAGTTGTAT [XGTACX_site1770]	11.5 ± 1
TTTTTTATTAGTATCTGTACACATTGGTATTTGTAT [XGTACX_site6682]	11.4 ± 0.69
AATAAATAAATATATATATATATATAATATCATAAA [CACACA_negctrl_site337]	9.62 ± 0.085
